According to US10736889B2, “Method of treating dyskinesia” (Rutgers, The State University of New Jersey, priority 2011, dated 2020):

Tested on: Parkinsonian monkeys with LID

Oc1ccc2c3c1OC1[C@@H](O)CC[C@@]4(O)[C@@H](C2)N(CC2CCC2)CC[C@]314 (stereo partly shown) [Nalbuphine]
sedation (Example 1A, 0.1 and 0.2 mg/kg SC): No sedation occurred | dyskinesia duration (Example 1A, 0.1 and 0.2 mg/kg SC with 75 mg levodopa methyl ester, vs levodopa alone): lasted for a shorter time | dyskinesia severity (Example 1A, two monkeys, 0.1 and 0.2 mg/kg SC with 75 mg levodopa methyl ester (plus benserazide), vs levodopa alone, PD-MDS): ameliorated | sedation or other adverse effects (Example 1B, 0.25 or 0.5 mg/kg SC): no sedation or other adverse effects | effect of 0.5 mg/kg compared with 0.25 mg/kg (dose-response) (Example 1B, FIG. 2): slightly more pronounced than 0.25 mg/kg | severity and duration of dyskinesias (Example 1B, three monkeys, 0.25 or 0.5 mg/kg SC before 75 mg SC L-dopa methyl ester (plus benserazide)): Substantial reduction | effect on Parkinsonism (anti-LID efficacy of kappa agonism): without worsening Parkinsonism
